Source: PubChem BioAssay (Tox21)
Several values for one entry are separate records, joined by “and”; a condition that tells them apart may be missing. Identical values can stand only once. Inconclusive results, whose numbers are uncertain, are shown with a selection of clear calls. For some assays here: A potency beside an inconclusive call is a rough fit, not a confirmed value. Activity calls are given as the source filed them. Unless noted, calls come from the whole dose curve.

Legend:
[1] = p53 small molecule agonists, cell-based qHTS assay (AID 1963582; active = well fitted activation curve with a large enough effect in the signal ratio in the repeat runs, not every such curve was filed as active; inconclusive = weak or mixed curves; the % refers to the signal ratio); conditions: HCT-116 p53RE-bla reporter, beta-lactamase FRET ratio, 16 h; activation: at 66 µM (top of the series) unless noted
Summary of the method: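 Read-out is beta-lactamase FRET fluorescence after 2 h at room temperature with LiveBLAzer B/G substrate. p53 response element-bla cells were treated 16 h at 37 C with compounds in DMSO, added 5 h after seeding.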

[2] = biological target: Beta-2 adrenergic receptor (Homo sapiens) (UniProt P07550); assay: Adrenergic beta2 receptor (ADRB2) small molecule agonists, cell-based qHTS assay (AID 1963593); conditions: CHO-ADRB2 cells, cAMP HTRF, 30 min;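 for activation: CHO cells stably overexpressing human ADRB2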
Summary of the method: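 CHO cells stably over-expressing ADRB2 were plated overnight at 37C, then dosed with compounds plus a stimulation mix containing 100uM IBMX and 25uM Ro-20-1724 for 0.5hr at room temperature. cAMP was measured by HTRF competition, 1hr.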

[3] = biological target: D(2) dopamine receptor (Homo sapiens) (UniProt P14416); assay: Dopamine D2 receptor (DRD2) small molecule antagonists, cell-based qHTS assay (AID 1963595; active = well fitted inhibition curve with a large enough effect in the signal ratio in the repeat runs, with a control signal flat; inconclusive = weak or mixed curves, or effect the other way; the % refers to the signal ratio); conditions: HEK293-DRD2 cAMP HTRF antagonist mode; activity change, negative = inhibition: at 92.4 µM (top of the series) unless noted
Summary of the method: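 In this cell-based antagonist screen, compounds act for 10 min at room temperature before a 30 min challenge with 12 nM quinpirole and 200 nM NKH477. cAMP is quantified by HTRF competition in DRD2-HEK293 cells containing 0.1 mM Ro20-1724.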

[4] = activation: at 92.4 µM (top of the series) unless noted
% is set by controls: 0 for no effect and ±100 for the full control effect; potency is the fitted concentration of half-maximal effect; tags give direction and shape of the fitted curve or compound fluorescence and quenching.

Sequence of UniProt P14416 (P14416 whole entry, looked up): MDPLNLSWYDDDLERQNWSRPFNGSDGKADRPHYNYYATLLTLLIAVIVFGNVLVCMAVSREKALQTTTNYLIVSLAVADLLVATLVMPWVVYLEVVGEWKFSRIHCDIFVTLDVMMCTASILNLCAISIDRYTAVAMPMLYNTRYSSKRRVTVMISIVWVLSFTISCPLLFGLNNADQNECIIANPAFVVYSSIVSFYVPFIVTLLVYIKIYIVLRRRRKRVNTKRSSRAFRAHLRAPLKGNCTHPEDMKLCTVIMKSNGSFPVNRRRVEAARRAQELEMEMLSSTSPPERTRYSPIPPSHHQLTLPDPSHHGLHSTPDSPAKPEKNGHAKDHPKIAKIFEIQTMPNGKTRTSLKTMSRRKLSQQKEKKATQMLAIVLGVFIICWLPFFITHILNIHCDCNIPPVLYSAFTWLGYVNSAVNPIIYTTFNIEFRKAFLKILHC
Sequence of UniProt P07550 (P07550 whole entry, looked up): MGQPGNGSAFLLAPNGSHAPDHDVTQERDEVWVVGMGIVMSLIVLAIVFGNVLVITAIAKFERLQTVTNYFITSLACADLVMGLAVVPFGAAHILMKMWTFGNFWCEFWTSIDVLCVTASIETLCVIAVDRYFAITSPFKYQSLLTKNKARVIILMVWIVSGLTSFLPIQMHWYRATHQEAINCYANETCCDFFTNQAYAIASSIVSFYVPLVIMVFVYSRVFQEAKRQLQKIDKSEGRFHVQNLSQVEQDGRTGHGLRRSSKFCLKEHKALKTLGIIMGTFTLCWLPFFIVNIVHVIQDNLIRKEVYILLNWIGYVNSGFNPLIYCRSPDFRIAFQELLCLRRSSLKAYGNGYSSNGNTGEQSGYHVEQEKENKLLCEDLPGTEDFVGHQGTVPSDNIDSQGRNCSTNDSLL

Structure (SMILES): CCOC(=O)CC(C)O (stereo unspecified)
- Potency [1]: inconclusive: 4.58 µM [falling, single point]
- activation [2, 4]: inconclusive: -1.33%
- Potency [3]: inactive

Structure (SMILES): CC(C)CCCCCOC(=O)CCS
- Potency [1]: inactive
- Potency [2, 4]: inactive

Structure (SMILES): COc1ccc(C)cc1N
- activation [1]: inconclusive: -0.935%
- Potency [2, 4]: inactive and inconclusive: 1.37 µM [inhibitor, single point]

Structure (SMILES): CCOCCO
- Potency [1]: inactive
- activation [2, 4]: inconclusive: 24.6% and inconclusive: 1.46%
- Potency [3]: inactive

Structure (SMILES): Cc1nccn1CC1CCc2c(c3ccccc3n2C)C1=O (stereo unspecified)
- Potency [1]: inactive
- activity change, negative = inhibition [3]: inconclusive: -17.6% [at 42.5 µM]

Structure (SMILES): NC(=O)c1cnccn1
- Potency [1]: inactive
- Potency [2, 4]: inconclusive: 6.33 µM [inhibitor, single point]
- activation [2, 4]: inconclusive: -0.488%
- activation ([2]; at 42.5 µM (top of the series)): inactive: 4.08%

Structure (SMILES): CCN(CCC#N)c1ccc(N=Nc2ccc([N+](=O)[O-])cc2)cc1
- Potency [1]: inconclusive: 0.0576 µM [falling, full curve]
- activation [2, 4]: inconclusive: -4.79%
- Potency [3]: inactive

Structure (SMILES): CCC(C)(Oc1ccc(C2(c3ccc(OC(C)(CC)C(=O)O)cc3)CCCCC2)cc1)C(=O)O (stereo unspecified)
- Potency [1]: inactive
- activity change, negative = inhibition [3]: inconclusive: -2.42% [at 42.5 µM]

Structure (SMILES): CC(C)(C)C(=O)OCOP(=O)(COCCn1cnc2c(N)ncnc21)OCOC(=O)C(C)(C)C
- Potency [1]: active: 7.93 µM
- activation [2, 4]: inconclusive: 0.576% [at 42.5 µM]
- Potency [3]: active: 13.3 µM

Structure (SMILES): NS(=O)(=O)c1cc2c(cc1Cl)NC(CC1CCCC1)NS2(=O)=O (stereo unspecified)
- Potency [1]: inactive
- activity change, negative = inhibition [3]: inconclusive: -30.8% [at 42.5 µM]
